Experimental data as given in PubChem BioAssay (NCATS).
Where “and” joins values, the source holds several entries; their conditions need not be identical. Identical values can stand only once. The inconclusive results got no clear call from the source; some entries with a clear call stand among them for comparison. For some assays here: A potency beside an inconclusive call is a rough fit, not a confirmed value. Calls of active or inactive are those of the source. Calls follow the shape of the dose curve; as a rule, active = well fitted curve in the direction sought with a large enough effect; inconclusive = small, poorly fitted or top-dose-only effect, or another doubt; inactive = no such curve, though single readings can be large; an effect the other way counts as inactive or inconclusive.

How the values were obtained:
[1] = HEK293 18hr Apoptosis Induction qHTS against the NCATS CANVASS Library (AID 1347357)
In short: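 Caspase-Glo 3/7 luminescence (15 min, room temperature) measured apoptosis after an 18-hour, 37 degrees C exposure of HEK293 cells (500 cells/well) to compounds in 11 points.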

[2] = system: NAD(P)H diaphorase (Clostridium kluyveri); assay: Diaphorse counterscreen qHTS: Assay Interference Panel against the NCATS CANVASS Library (AID 1347362); also: potency is read from the fitted curve at half-maximal effect
In short: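 Clostridium kluyveri diaphorase in PBS with 0.01% Tween-20 was preincubated 15 min at room temperature in the dark with compounds (11-point series). Resorufin fluorescence (ex 525/20, em 598/25) was read 5 min after adding resazurin/NADH.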

[3] = KB-3-1 Cancer Cell Toxicity qHTS against the NCATS CANVASS Library (AID 1347366); also: nearly all actives have a fitted effect of over 75% in size; also: potency is read from the fitted curve at half-maximal effect
In short: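 CellTiter-Glo luminescence measured viability after 72 h at 37C. KB-3-1 cells were seeded at 500 per well in DMEM/10% FBS.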

[4] = G06 Cancer Cell Toxicity qHTS against the NCATS CANVASS Library (AID 1347368); also: nearly all actives have a fitted effect of over 60% in size
In short: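 G06 dog glioma cells seeded at 500 cells/well were exposed to compounds (11-point qHTS series) for 72 hr at 37C, 5% CO2; viability read as ATP content by CellTiterGlo luminescence.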

[5] = MCF7 Cancer Cell Toxicity qHTS against the NCATS CANVASS Library (AID 1347369); conditions: activity change, negative = cytotoxicity: at 46 µM (top of the series); also: potency is read from the fitted curve at half-maximal effect
In short: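 Cytotoxicity was measured as CellTiterGlo luminescence (ATP) after 72 h at 37 °C. The cells were MCF7 at 500 per well, with an 11-point compound concentration series.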

[6] = qHTS for ATAD5 Antagonist screened against the NCATS CANVASS Library (AID 1347370); also: nearly all actives have a fitted effect of over 65% in size; also: potency is read from the fitted curve at half-maximal effect
In short: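 HEK293T cells with a stably integrated ATAD5-controlled luciferase reporter were exposed to compounds (11-pt) alongside 10 uM 5-fluorouridine as ATAD5 stabilizer for 16hr at 37C. Viability was read by CellTiter-Fluor fluorescence, then ATAD5 by luminescence.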

[7] = biological target: Nuclear receptor subfamily 1 group I member 3 (Homo sapiens) (UniProt Q14994); assay: qHTS for Constitutive Androstane Receptor (CAR) Agonist screened against the NCATS CANVASS Library (AID 1347373);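 also: every well also contained 1.5 µM PK11195 alongside the test compound; potency is read from the fitted curve at half-maximal effect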
Chain of UniProt Q14994 (Q14994 whole entry, looked up): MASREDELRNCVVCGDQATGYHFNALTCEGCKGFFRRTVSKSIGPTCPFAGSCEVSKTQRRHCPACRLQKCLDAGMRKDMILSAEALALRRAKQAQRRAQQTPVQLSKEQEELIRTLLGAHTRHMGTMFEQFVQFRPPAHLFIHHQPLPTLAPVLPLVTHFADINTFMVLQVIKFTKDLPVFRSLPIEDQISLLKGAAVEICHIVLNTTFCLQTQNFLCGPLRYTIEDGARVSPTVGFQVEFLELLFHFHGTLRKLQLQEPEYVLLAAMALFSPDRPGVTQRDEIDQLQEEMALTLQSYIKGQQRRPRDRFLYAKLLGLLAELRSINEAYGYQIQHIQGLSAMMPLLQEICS
In short: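 HepG2 cells stably expressing hCAR and a CYP2B6-2.2kb luciferase reporter were treated for 24hr at 37C with compounds (11-point qHTS) in the presence of 1.5uM PK11195. Reporter activation was read by ONE-Glo luminescence.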

[8] = DH5-alpha competent E. coli microbial cell viability qHTS against the NCATS CANVASS Library (AID 1347377); conditions: viability signal change, negative = cytotoxic: at 46.1 µM (top of the series); also: potency is read from the fitted curve at half-maximal effect
In short: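 DH5-alpha E. coli suspension (0.9 OD culture diluted to 0.2 OD) exposed to compounds in an 11-point series, overnight at 37C, 5% CO2. Viability read as ATP by BacTiter-Glo luminescence after 20 min at room temperature.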

[9] = qHTS for Inflammasome Signaling Inhibitors: IL-1-beta AlphaLISA screen against the NCATS CANVASS Library (AID 1347379);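 also: human THP-1 cells primed with LPS then triggered with ATP; secreted IL-1B measured as AlphaLISA emission at 615 nm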; also: potency is read from the fitted curve at half-maximal effect
In short: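 Human THP-1 cells were pretreated 1 hr at 37 °C with compounds (up to 57.5 uM final), then stimulated with LPS (250 ng/mL final) and ATP (1.25 mM final). Secreted IL-1B was read by AlphaLISA after 16 hr.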

[10] = COV-362 Cancer Cell Toxicity qHTS against the NCATS CANVASS Library (AID 1347352); also: potency is read from the fitted curve at half-maximal effect
In short: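 Cells were seeded at 1000 per well and allowed to settle 4 hours at 37 degrees C before pin transfer of compounds as an 11-point series. Viability was read by CellTiter-Glo luminescence after 72 hours' exposure.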

[11] = J3T Cancer Cell Toxicity qHTS against the NCATS CANVASS Library (AID 1347371); also: potency is read from the fitted curve at half-maximal effect
In short: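 J3T dog glioma cells (500 cells/well) were exposed to compounds in an 11-point series for 72 hr at 37C, 5% CO2. Cytotoxicity was read as ATP content by CellTiterGlo luminescence.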

[12] = qHTS for H2AX Agonists against the NCATS CANVASS Library (AID 1347378); also: potency is read from the fitted curve at half-maximal effect
In short: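 Phospho-H2AX (S139) in CHO-K1 lysates measured by HTRF, reported as 665/615 nm emission ratio after 24 hr antibody incubation at room temperature. Cells were first treated with a compound series for 3 hr at 37C (0.76% DMSO final).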

[13] = Redox Reaction Profiling qHTS: Assay Interference Panel against the NCATS CANVASS Library (AID 1347401); also: potency is read from the fitted curve at half-maximal effect
In short: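 Resazurin (5 uM) conversion to resorufin measured with 200 uM DTT in 50 mM HEPES pH 7.3, 50 mM NaCl. Compounds tested in 11-point qHTS series. Fluorescence (ex 525/em 598 nm) read before and after 15 min dark incubation.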

[14] = biological target: Nuclear receptor subfamily 1 group I member 3 (Homo sapiens) (UniProt Q14994); assay: qHTS for Constitutive Androstane Receptor (CAR) Antagonist screened against the NCATS CANVASS Library (AID 1347372); also: potency is read from the fitted curve at half-maximal effect
In short: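 HepG2 cells stably carrying hCAR and a CYP2B6-2.2kb luciferase reporter were exposed to compounds plus 50 nM CITCO for 24hr at 37C. CAR activity was read by ONE-Glo luminescence, with viability measured first by CellTiter-Fluor.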

[15] = qHTS for activators of dead-cell proteases activity screened against the NCATS CANVASS Library (AID 1347392);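 also: luminescence from protease leaking out of membrane-damaged cells cleaving impermeant substrate; rising signal means more cytotoxicity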
In short: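 HepG2 cells (2000/well) attached 18 h at 37C, then exposed 5 h to compounds (11-point qHTS). Dead-cell protease activity read as luminescence from cell-impermeant AAF-aminoluciferin substrate after 15 min at room temperature.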

[16] = Vero-766 cells viability qHTS against the NCATS CANVASS Library: Counterscreen for Zika virus inhibition assay (AID 1347394); conditions: Vero 766 viability, CellTiter-Glo luminescence, 72 h; activity change, negative = cytotoxic: at 46.1 µM (top of the series); also: nearly all actives have a fitted effect of over 60% in size; also: potency is read from the fitted curve at half-maximal effect
In short: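 CellTiter Glo luminescence measured cytotoxicity after 72 h at 37C in uninfected Vero 766 cells, plated at 1000 cells/well. Compounds were applied in an 11-point series. Wells without cells defined 100% inhibition.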

[17] = qHTS assay for small molecule disruptors of mitochondrial membrane potential screened against the NCATS CANVASS Library (AID 1347389); also: potency is read from the fitted curve at half-maximal effect; nearly all actives have a fitted effect of over 60% in size
In short: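 HepG2 cells (2,000/well) were plated overnight at 37C, exposed to compound for 1 hr at 37C/5% CO2, then loaded with Mito-MPS dye for 30 min. Depolarization was read as a drop in red (590 nm) to green (535 nm) fluorescence ratio.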
Tags tell the direction and shape of the fitted curve.

**Q.** What does the source list for CC[C@@H](c1cc(OC)c(OC)cc1OC)[C@H](C)[C@@H](/C(C)=C/c1cc(OC)c(OC)cc1OC)c1cc(OC)c(OC)cc1OC?
**A.** Potency [1]: inactive; Potency [2]: inconclusive: 17.2 µM [inhibitor, partial curve] and inconclusive: 19.3 µM [inhibitor, partial curve]; Potency [3]: inconclusive: 33.2 µM [cytotoxic, single point]; Potency [4]: inactive; Potency [5]: inconclusive: 37 µM [cytotoxic, partial curve, poor fit]; Potency [6]: inconclusive: 9.33 µM [inhibitor, full curve]

**Q.** With COc1ccc([C@@H]2c3cc4c(cc3C(=O)C(C)C2C)OCO4)cc1OC (stereo not given in full) as the compound, how does the Potency [2] read?
**A.** inactive

**Q.** What about the Potency [6] of the same compound?
**A.** inconclusive: 16.6 µM [inhibitor, partial curve]

**Q.** And the Potency [7]?
**A.** inconclusive: 18.6 µM [activator, partial curve, poor fit]

**Q.** And the Potency [8]?
**A.** inactive

**Q.** Which Potency [9] does the source give for CC(C)(Br)[C@@H](Cl)C[C@H](Br)[C@](C)(Cl)/C=C/Br here?
**A.** inconclusive: 27.3 µM [inhibitor, partial curve]

**Q.** With C/C(=C\[C@H](C)C(=O)CCCC1CC(=O)NC(=O)C1)[C@@H]1OC(=O)/C=C/CC/C=C/C[C@@H](O)[C@@H]1C as the compound, how does the Potency [10] read?
**A.** inconclusive: 2.11 µM [cytotoxic, full curve]

**Q.** And the Potency [6]?
**A.** active: 2.34 µM

**Q.** What about the Potency [11] of the same compound?
**A.** active: 2.64 µM

**Q.** And the Potency [12]?
**A.** inconclusive: 13.7 µM [activator, full curve]

**Q.** What about the Potency [13] of the same compound?
**A.** inconclusive: 21.5 µM [activator, partial curve]

**Q.** Which Potency [2] does the source give for COc1ccc([C@@H]2c3cc4c(cc3C(=O)[C@H](C)C2C)OCO4)cc1OC (stereo not given in full) here?
**A.** inconclusive: 30.5 µM [inhibitor, partial curve, poor fit]

**Q.** And the Potency [3]?
**A.** inconclusive: 33.2 µM [cytotoxic, single point]

**Q.** What about the Potency [6] of the same compound?
**A.** active: 16.6 µM

**Q.** What about the Potency [14] of the same compound?
**A.** inactive

**Q.** And the Potency [15]?
**A.** inactive

**Q.** And the Potency [16]?
**A.** inconclusive: 16.6 µM [cytotoxic, partial curve, poor fit]

**Q.** For C[C@H](CCC(O)C(C)(O)CO)[C@@]1(O)CC[C@@]2(C)C3=C(CC[C@@]21C)[C@@]1(C)CCC(OC(=O)CCC(=O)O)C(C)(C)[C@@H]1CC3 (stereo not given in full), which Potency [12] is on record?
**A.** inconclusive: 54.5 µM [activator, single point]

**Q.** What about the Potency [17] of the same compound?
**A.** inconclusive: 29.5 µM [inhibitor, partial curve, poor fit]

**Q.** What about the Potency [16] of the same compound?
**A.** active: 29.5 µM

**Q.** For C=C[C@@](C)(O)CC[C@@H]1[C@@]2(C)CCCC(C)(C)[C@@H]2CC[C@@]1(C)O, which Potency [2] is on record?
**A.** inactive

**Q.** What about the Potency [14] of the same compound?
**A.** inconclusive: 6.6 µM [inhibitor, partial curve]

**Q.** And the Potency [8]?
**A.** inconclusive: 20.9 µM [rising, partial curve, poor fit]

**Q.** For COc1ccc(CCCc2cc(O)c(OC)c(O)c2)c(O)c1O, which Potency [2] is on record?
**A.** active: 21.6 µM

**Q.** And the Potency [3]?
**A.** inconclusive: 14.8 µM [cytotoxic, partial curve]

**Q.** For C[C@@H]1O[C@@H](O[C@@H]2[C@@H](O)[C@H](O[C@@H]3[C@@H](O)[C@@H](O)C(O[C@H]4[C@H](OC(=O)[C@]56CCC(C)(C)C[C@H]5C5=CCC7[C@@]8(C)C[C@H](O)[C@H](O[C@@H]9C[C@H](CO)[C@@H](O)[C@H](O)[C@H]9O)[C@@](C)(CO)C8[C@H](O)C[C@@]7(C)[C@]5(C)CC6)OC[C@H](O)[C@@H]4O)O[C@H]3C)OC[C@H]2O)[C@H](O)[C@H](O)[C@H]1O (stereo not given in full), which Potency [16] is on record?
**A.** inactive

**Q.** With O=C1CC(c2ccc(O)cc2)Oc2cc(O)cc(O)c21 (stereo not given) as the compound, how does the Potency [17] read?
**A.** inconclusive: 20.9 µM [inhibitor, partial curve]

**Q.** Which Potency [10] does the source give for COC(=O)c1cccc2oc(-c3cccc4oc(-c5c(C)cccc5O)nc34)nc12 here?
**A.** inconclusive: 4.2 µM [cytotoxic, full curve]

**Q.** And the Potency [6]?
**A.** active: 8.31 µM

**Q.** And the Potency [7]?
**A.** inconclusive: 10.5 µM [activator, partial curve]

**Q.** What about the Potency [8] of the same compound?
**A.** inconclusive: 2.95 µM [rising, full curve, poor fit]

**Q.** And the Potency [12]?
**A.** inactive

**Q.** What about the Potency [17] of the same compound?
**A.** inconclusive: 18.6 µM [inhibitor, partial curve, poor fit]

**Q.** What about the Potency [16] of the same compound?
**A.** inconclusive: 0.209 µM [cytotoxic, full curve, poor fit]

**Q.** For C/C=C/[C@H]1[C@H]2C(=O)c3c(O)c(C)c(O)c(C)c3[C@]1(C(=O)O)C(=O)C=C2C, which Potency [3] is on record?
**A.** inactive

**Q.** Which Potency [10] does the source give for O=C1CC(c2ccc(O)cc2)Oc2ccccc21 (stereo not given) here?
**A.** inactive

**Q.** What about the Potency [7] of the same compound?
**A.** active: 23.4 µM

**Q.** What about the Potency [8] of the same compound?
**A.** inconclusive: 16.6 µM [cytotoxic, partial curve]

**Q.** And the Potency [9]?
**A.** inconclusive: 43.2 µM [inhibitor, partial curve, poor fit]

**Q.** And the Potency [13]?
**A.** inactive

**Q.** What does the source list for C=C1C[C@@]23C=CC(=O)[C@@](C)(CCC(=O)Nc4c(OC5O[C@H](CO)[C@@H](O)[C@H](O)[C@H]5O)ccc(C(=O)O)c4O)C2C[C@@H]1CC3 (stereo not given in full)?
**A.** Potency [3]: inactive; Potency [6]: inactive; Potency [8]: inconclusive: 0.0371 µM [cytotoxic, full curve, poor fit]; Potency [9]: inactive; Potency [13]: inconclusive: 42.9 µM [activator, partial curve, poor fit]
